Experimental data from the supplement of paper PMC7125110.
± gives the standard error. Variants at the background level are over-represented here.

B1: glmS ribozyme (parent)
chain: AUAAAAGCGCCAGAACUACAGAAAUGUAGUUGACGAGGAGGAGGUUUAUCGAAUUUUCGGCGGAUGCCUCCAAA

Assays:
Details in all cases: with glucosamine-6-phosphate
[1] = variants of: B1; assay: self-cleavage kobs at 40 uM GlcN6P; higher = faster cleavage; RNA array
Summary of the method: (§1)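 Barcoded ribozyme variants, transcribed in situ by E. coli RNA polymerase on sequenced MiSeq chips, were followed via a hybridised Cy3 probe at 37 °C. Glucosamine-6-phosphate ranged from 40 μM to 10 mM in HEPES/KCl/Mg(OAc)2 buffer. kobs came from decay fits to per-tile medians, and kcat and KM from weighted Michaelis–Menten fits.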

[2] = variants of: B1; assay: self-cleavage kobs at 640 uM GlcN6P; higher = faster cleavage; RNA array
Summary of the method: as §1

[3] = variants of: B1; assay: self-cleavage kobs at 160 uM GlcN6P; higher = faster cleavage; RNA array
Summary of the method: as §1

[4] = variants of: B1; assay: self-cleavage kobs at 2500 uM GlcN6P; higher = faster cleavage; RNA array
Summary of the method: as §1

[5] = variants of: B1; assay: self-cleavage kobs at 10000 uM GlcN6P; higher = faster cleavage; RNA array
Summary of the method: as §1

| Variant | self-cleavage kobs at 40 uM GlcN6P [1] | self-cleavage kobs at 640 uM GlcN6P [2] | self-cleavage kobs at 160 uM GlcN6P [3] | self-cleavage kobs at 2500 uM GlcN6P [4] | self-cleavage kobs at 10000 uM GlcN6P [5] |
| --- | --- | --- | --- | --- | --- |
| G35A G60A | < 1e-05 s⁻¹ | < 1e-05 s⁻¹ | < 1e-05 s⁻¹ | < 1e-05 s⁻¹ | < 1e-05 s⁻¹ |
| G35A G60U | < 1e-05 s⁻¹ | < 1e-05 s⁻¹ | < 1e-05 s⁻¹ | < 1e-05 s⁻¹ | < 1e-05 s⁻¹ |
| G35A U57G | < 1e-05 s⁻¹ |  |  |  |  |
| G35C A39C U49A A53U | < 1e-05 s⁻¹ |  |  |  |  |
| G35C A39G | < 1e-05 s⁻¹ | < 1e-05 s⁻¹ | < 1e-05 s⁻¹ | < 1e-05 s⁻¹ | < 1e-05 s⁻¹ |
| G35C A42G | < 1e-05 s⁻¹ | < 1e-05 s⁻¹ | < 1e-05 s⁻¹ |  | < 1e-05 s⁻¹ |
| G35C C67U | < 1e-05 s⁻¹ | < 1e-05 s⁻¹ |  | < 1e-05 s⁻¹ |  |
| G35C C71G | < 1e-05 s⁻¹ | < 1e-05 s⁻¹ | < 1e-05 s⁻¹ |  |  |
| G35C G38C C71U | < 1e-05 s⁻¹ |  |  |  |  |
| G35C G41C | < 1e-05 s⁻¹ | < 1e-05 s⁻¹ | < 1e-05 s⁻¹ | < 1e-05 s⁻¹ | < 1e-05 s⁻¹ |
| G35C G43U | < 1e-05 s⁻¹ |  |  | < 1e-05 s⁻¹ | < 1e-05 s⁻¹ |
| G35C G62A | < 1e-05 s⁻¹ | < 1e-05 s⁻¹ | < 1e-05 s⁻¹ | < 1e-05 s⁻¹ | < 1e-05 s⁻¹ |
| G35C G63U | < 1e-05 s⁻¹ | < 1e-05 s⁻¹ | < 1e-05 s⁻¹ |  |  |
| G35C G66A | < 1e-05 s⁻¹ |  |  |  |  |
| G35C U45A | < 1e-05 s⁻¹ | < 1e-05 s⁻¹ | < 1e-05 s⁻¹ | < 1e-05 s⁻¹ | < 1e-05 s⁻¹ |
| G35C U45C C67G C68A | 0.00152 ± 0.00042 s⁻¹ |  |  |  | 0.000566 ± 0.00018 s⁻¹ |
| G35C U56G C58A U69A | < 1e-05 s⁻¹ |  | < 1e-05 s⁻¹ | < 1e-05 s⁻¹ |  |
| G35C U65G | < 1e-05 s⁻¹ |  | < 1e-05 s⁻¹ | < 1e-05 s⁻¹ |  |
| G35U A36G | < 1e-05 s⁻¹ |  | < 1e-05 s⁻¹ |  | < 1e-05 s⁻¹ |
| G35U A42G C61U | < 1e-05 s⁻¹ | < 1e-05 s⁻¹ | < 1e-05 s⁻¹ |  | < 1e-05 s⁻¹ |
| G35U C70G | < 1e-05 s⁻¹ | < 1e-05 s⁻¹ | < 1e-05 s⁻¹ | < 1e-05 s⁻¹ |  |
| G35U G38A G51C C68A | < 1e-05 s⁻¹ | < 1e-05 s⁻¹ |  | < 1e-05 s⁻¹ |  |

| Variant | self-cleavage kobs at 40 uM GlcN6P [1] | self-cleavage kobs at 640 uM GlcN6P [2] | self-cleavage kobs at 160 uM GlcN6P [3] | self-cleavage kobs at 2500 uM GlcN6P [4] | self-cleavage kobs at 10000 uM GlcN6P [5] |
| --- | --- | --- | --- | --- | --- |
| G35U G40U | < 1e-05 s⁻¹ | < 1e-05 s⁻¹ | < 1e-05 s⁻¹ | < 1e-05 s⁻¹ | < 1e-05 s⁻¹ |
| G35U U54C U56G A64U C70U | < 1e-05 s⁻¹ |  |  |  |  |
| G35U U56G | < 1e-05 s⁻¹ | < 1e-05 s⁻¹ |  | < 1e-05 s⁻¹ | < 1e-05 s⁻¹ |
| A36C A39G G60U | < 1e-05 s⁻¹ | < 1e-05 s⁻¹ |  | < 1e-05 s⁻¹ |  |
| A36C A53C G63U | < 1e-05 s⁻¹ |  |  |  | < 1e-05 s⁻¹ |
| A36C C50G C70U | 0.000435 ± 0.00014 s⁻¹ |  |  |  |  |
| A36C G37U A42C U49A | < 1e-05 s⁻¹ |  |  |  | < 1e-05 s⁻¹ |
| A36C G38U A42U U49A A52C C68U | < 1e-05 s⁻¹ |  |  |  |  |
| A36C G40U | < 1e-05 s⁻¹ | < 1e-05 s⁻¹ |  | < 1e-05 s⁻¹ | < 1e-05 s⁻¹ |
| A36C G43C | < 1e-05 s⁻¹ |  |  | < 1e-05 s⁻¹ |  |
| A36C G59C | < 1e-05 s⁻¹ | < 1e-05 s⁻¹ | < 1e-05 s⁻¹ | < 1e-05 s⁻¹ | < 1e-05 s⁻¹ |
| A36G A39G | < 1e-05 s⁻¹ | < 1e-05 s⁻¹ | < 1e-05 s⁻¹ |  |  |
| A36G A39U U69G | < 1e-05 s⁻¹ |  |  |  | < 1e-05 s⁻¹ |
| A36G A52C | < 1e-05 s⁻¹ | < 1e-05 s⁻¹ | < 1e-05 s⁻¹ | < 1e-05 s⁻¹ | < 1e-05 s⁻¹ |
| A36G A53C | < 1e-05 s⁻¹ |  |  | < 1e-05 s⁻¹ | < 1e-05 s⁻¹ |
| A36G C67U | < 1e-05 s⁻¹ |  |  |  |  |
| A36G U46C G63U C70U | < 1e-05 s⁻¹ |  |  | < 1e-05 s⁻¹ | < 1e-05 s⁻¹ |
| A36G U55A | < 1e-05 s⁻¹ |  | < 1e-05 s⁻¹ |  |  |
| A36G U56A | < 1e-05 s⁻¹ | < 1e-05 s⁻¹ |  |  |  |
| A36G U57A C58A G60A | < 1e-05 s⁻¹ |  |  |  | < 1e-05 s⁻¹ |
| A36G U57C | < 1e-05 s⁻¹ | < 1e-05 s⁻¹ | < 1e-05 s⁻¹ | < 1e-05 s⁻¹ |  |
